Here are results for 45 molecules from article PMC4336329 (PLoS ONE, 2015).

Out of some 310,000 compounds screened, about 2,200 (0.71%) showed an effect of 50% or more. Effects have a minus sign here. Some of the results follow.

For the test, the target named is human ether-à-go-go-related gene (hERG) potassium channel (human, UniProt Q12809). The test is described as follows: primary screen, population patch clamp on CHO cells stably expressing hERG.
Chain of human ether-à-go-go-related gene (hERG) potassium channel (Q12809 whole entry, looked up): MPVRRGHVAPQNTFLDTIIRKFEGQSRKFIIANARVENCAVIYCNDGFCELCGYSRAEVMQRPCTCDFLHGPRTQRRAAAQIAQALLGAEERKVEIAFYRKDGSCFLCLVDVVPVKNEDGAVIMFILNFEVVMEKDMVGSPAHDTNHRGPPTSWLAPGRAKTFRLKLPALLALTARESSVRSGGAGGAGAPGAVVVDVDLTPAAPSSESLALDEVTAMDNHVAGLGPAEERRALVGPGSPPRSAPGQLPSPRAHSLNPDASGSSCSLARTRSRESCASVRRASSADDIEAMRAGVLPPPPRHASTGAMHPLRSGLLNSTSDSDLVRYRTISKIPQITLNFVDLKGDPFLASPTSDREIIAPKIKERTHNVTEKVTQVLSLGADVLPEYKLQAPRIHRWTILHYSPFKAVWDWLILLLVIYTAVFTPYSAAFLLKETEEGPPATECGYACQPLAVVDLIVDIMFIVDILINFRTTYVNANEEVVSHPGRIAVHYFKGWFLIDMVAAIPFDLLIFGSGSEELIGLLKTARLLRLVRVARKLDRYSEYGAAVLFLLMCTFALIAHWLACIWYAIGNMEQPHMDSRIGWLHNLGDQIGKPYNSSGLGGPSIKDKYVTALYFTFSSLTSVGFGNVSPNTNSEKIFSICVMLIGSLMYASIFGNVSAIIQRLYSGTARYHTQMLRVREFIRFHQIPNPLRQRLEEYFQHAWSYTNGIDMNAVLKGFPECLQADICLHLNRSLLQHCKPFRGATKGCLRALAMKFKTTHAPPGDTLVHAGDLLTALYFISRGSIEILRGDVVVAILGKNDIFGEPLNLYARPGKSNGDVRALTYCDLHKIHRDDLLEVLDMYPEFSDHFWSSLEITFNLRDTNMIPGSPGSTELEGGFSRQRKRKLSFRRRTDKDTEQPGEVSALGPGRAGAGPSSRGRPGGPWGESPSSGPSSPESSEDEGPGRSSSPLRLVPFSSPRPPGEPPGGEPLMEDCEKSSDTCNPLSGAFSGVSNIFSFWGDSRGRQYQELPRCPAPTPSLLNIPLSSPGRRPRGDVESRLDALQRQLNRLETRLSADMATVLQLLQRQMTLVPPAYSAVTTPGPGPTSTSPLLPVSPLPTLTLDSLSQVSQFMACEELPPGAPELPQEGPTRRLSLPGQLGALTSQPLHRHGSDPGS
For `Cc1cccc(NC(=O)CCN2C(=O)c3cccc([N+](=O)[O-])c3C2=O)c1`, the “hERG current change (%, negative = inhibition) at 1uM” value is recorded as 17.1%.
In the case of `Cc1ccc(C(=O)Nc2ccc(N3CCCC3)cc2)cc1`, the “hERG current change (%, negative = inhibition) at 1uM” value is on record as 9.07%.
Turning to `C/C(=N\N1CCCCCC1)c1c(O)n(C)c(=O)n(C)c1=O`, the “hERG current change (%, negative = inhibition) at 1uM” value was 12.3%.
For `CC(Oc1ccc(/C=N/NC(=O)Cc2cccc3ccccc23)cc1)C(=O)O` (stereo not drawn), the “hERG current change (%, negative = inhibition) at 1uM” value is -1.66%.
As for `COCCCNC(=O)Cc1coc2ccc3ccccc3c12`, the “hERG current change (%, negative = inhibition) at 1uM” value came out at 18.2%.
Under `CC(=O)NC1(c2ccccc2)CCN(Cc2nnnn2C(C)(C)C)CC1` stands 10%; under `Cc1cc(C)nc(N2CCC(C(=O)NC3CCCCCC3)CC2)n1`, 0.0346%; under `C=CCNC(=S)NC(CC(=O)OC)c1ccc2c(c1)OCO2` (stereo not drawn), 8.6%.
`Cc1cccc(N2CCN(C3CCCCC3NS(=O)(=O)c3ccccc3)CC2C)c1` (stereo not drawn): the “hERG current change (%, negative = inhibition) at 1uM” value is on record as 14.4%.
Under `CC(C)CC(OC(=O)c1cccs1)C(=O)NCc1cccs1` (stereo not drawn) stands 12.1%; under `CCN(CC)S(=O)(=O)c1cccc(NC(=S)NC(=O)/C=C/c2ccc(S(=O)(=O)N3CCOCC3)cc2)c1`, 5.39%; under `O=C(NNC1=NS(=O)(=O)c2ccccc21)c1ccccc1Cl`, 12.1%.
Under `CCN(CC)C(=O)N1CCn2c(nc3ccccc32)C1` stands 9.48%.
With `CCc1nnc(SCC(=O)Nc2ccc3c(c2)OCO3)n1CC`, the “hERG current change (%, negative = inhibition) at 1uM” value was 9%.
As to `O=C(NCC1c2ccccc2CCN1C(=O)CN1C(=O)c2ccccc2C1=O)C1CCCCC1` (stereo not drawn), the “hERG current change (%, negative = inhibition) at 1uM” value turned out to be 7.49%.
On to `CCOC(=O)C1CCCN(C(=O)c2ccc(S(=O)(=O)Nc3ccccc3OC)cc2)C1` (stereo not drawn), for which the “hERG current change (%, negative = inhibition) at 1uM” value was 4.06%.
Under `Cc1ccnn1CCC(=O)N1CCCC(N2CCN(c3cccc(Cl)c3)CC2)C1` (stereo not drawn) stands -3.74%; under `COCCCNC(=O)C1CCC(CNS(=O)(=O)c2ccc(C)cc2)CC1` (stereo not drawn), 12.3%; under `CCCCC(NC(C)=O)c1nc2ccccc2n1CCCC` (stereo not drawn), 14.5%.
Under `Cc1oc(-c2ccc(Cl)cc2)nc1CS(=O)CC(=O)NC1CCCCC1` (stereo not drawn) stands 13.3%; under `CCOC(=O)C1=C(CS(=O)(=O)c2ccccc2)NC(=O)NC1c1ccccc1OCC` (stereo not drawn), 4.4%.
Under `Cc1cc(NC(=O)CCC(=O)N(c2ccccc2)C(C(=O)NC2CCCC2)c2ccccc2C)no1` (stereo not drawn) stands 4.32%.
As to `O=C(COC(=O)C12CC3CC(CC(O)(C3)C1)C2)NC12CC3CC(CC(C3)C1)C2`, the “hERG current change (%, negative = inhibition) at 1uM” value turned out to be 12%.
Under `Cc1cc(OCCN2CCCCCC2)ccc1[N+](=O)[O-].O=C(O)C(=O)O` stands -12.8%.
Under `Cc1ccc(NC(=O)CSc2ncccn2)c([N+](=O)[O-])c1` stands 9.32%.
As to `COc1cccc(C(C(=O)NC2CCCC2)N(C(=O)CNC(=O)c2ccco2)c2cccnc2)c1` (stereo not drawn), the “hERG current change (%, negative = inhibition) at 1uM” value is recorded as 18.1%.
Under `OCC[C@H]1C[C@@H](O)[C@H](O)[C@]2(OCCCc3ccccc32)O1` stands -13.8%.
For the molecule `CCCc1nc(SCC(=O)c2ccc(OC)cc2)c2ccccc2n1`, the “hERG current change (%, negative = inhibition) at 1uM” value is recorded as 1.74%.
Under `COc1cccc(C(=O)OCC(=O)Nc2ccc(N3CCOCC3)cc2)c1` stands 12.9%.
Under `N#Cc1ccc(-c2ccc(F)cc2)nc1Sc1ccccc1` stands 13.7%.
Under `COc1ccc(NN=Nc2ccc([N+](=O)[O-])cc2)cc1` stands 15.5%; under `c1cncc(CNc2cccc(-c3nc4ccccc4[nH]3)c2)c1`, 10.9%.
Take `CCCN(Cc1nnc(-c2cccs2)o1)C(=O)CN1C(=O)NC2(CCCCC2C)C1=O` (stereo not drawn): the “hERG current change (%, negative = inhibition) at 1uM” value is on record as -3.04%.
In the case of `COc1ccc(CNC(=O)COc2ccc(S(=O)(=O)N3CCOCC3)cc2)cc1`, the “hERG current change (%, negative = inhibition) at 1uM” value was 2.05%.
Under `O=C(N1CCCC1)C(F)(F)Oc1ccc(F)cc1` stands 5.88%; under `CCOc1ccc2ccccc2c1CNc1nnnn1C`, 6.18%.
Under `CCC(CC)c1nnc(NC(=O)c2ccc3c(c2)OCO3)s1` stands 2.22%; under `CCCC12CN3CCN(C1)CC(CCC)(C3)C2=O`, 13.7%; under `Cc1c(C(=O)N2CCC3(CC2)OCCO3)sc2ncnc(N3CCN(c4ccccn4)CC3)c12`, -8.3%.
For the molecule `Cc1ccc(OCc2n[nH]c(=S)n2-c2ccccc2)cc1`, the “hERG current change (%, negative = inhibition) at 1uM” value was determined as 12.1%.
Consider `CCOC(=O)/C(N=O)=C(\O)C1CCN(C(=O)OCC)CC1`, for which the “hERG current change (%, negative = inhibition) at 1uM” value is recorded as 11.2%.
On to `CCN1CCN(c2ccc(S(=O)(=O)N3CCOCC3)cc2NC(=O)/C=C/c2cccc(OC)c2OC)CC1`, for which the “hERG current change (%, negative = inhibition) at 1uM” value was 12.7%.
Take `CCOc1ccccc1-c1nc(-c2cc3ccccc3nc2OC)no1`: the “hERG current change (%, negative = inhibition) at 1uM” value was determined as 4.97%.
Under `O=C(NCc1ccncc1)c1cnccn1` stands 11.5%; under `O=S(=O)(c1cccc(S(=O)(=O)N2CCC(Cc3ccccc3)CC2)c1)N1CCOCC1`, 7.64%.
